# According to the RNAGym collection of RNA variant scans (doi:10.1073/pnas.2313332121):
# Variants at the background level are over-represented here.
# B1: TPR 5TU (parent)
# chain: GGAUCUUCUCGAUCUAACAAAAAAGACAAAUCUGCCACAAAGCUUGAGAGCAUCUUCGGAUGCAGAGGCGGCAGCCUUCGGUGGCGCGAUAGCGCCAACGUUCUCAACUAUGACACGCAAAACGCGUGCUCCGUUGAAUGGAGUUUAUCAUG
# Variants of: B1
# Experiment: polymerase ribozyme fitness, log enrichment relative to wild type (log ratio); higher = more active; in vitro selection for triplet polymerase activity
# Outline: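 For each subunit of a heterodimeric triplet polymerase ribozyme, a mutant library was built by PCR and transcribed, then taken through a single in vitro selection round in triplicate. Selection involved annealing to a biotinylated primer, the partner subunit and triplets, incubation frozen at −7 °C, gel excision of extended constructs, capture on streptavidin beads and RT-PCR. Genotypes were retained after Illumina sequencing of inputs and outputs only with ≥10 input reads and ≥1 read in each output. Fitness is defined as the logarithm of a genotype's enrichment relative to wild-type enrichment, using inverse-variance-weighted averages across replicates, with the logarithm taken to base 2.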
row,Variant,polymerase ribozyme fitness (log ratio)
1,C54G C87U U90A,≤ -4.2
2,C54U G59U G74A,-3.62
3,C54A G68C A91C C93U A122U,≤ -4.2
4,C54U C69U C75U A107C A119C G141U,≤ -4.2
5,U55A C76A A115G A121C,-1.09
6,C54A G141U A142C,≤ -4.2
7,C54U C63G G67C G143A,≤ -4.2
8,U55A A115G G124U,-0.932
9,C54A G62A A91C A110G,≤ -4.2
10,U55A A106C C125G,-1.63
11,C54G C75G G86U G92C G124U C125A A137C U151C,≤ -4.2
12,C54U U77C G88A C96U A106C,≤ -4.2
13,C54A G86U A106U A142C U148C,≤ -4.2
14,U55A C57A,0.142
15,C54G C69U G74C C85U,≤ -4.2
16,C54U G84A U102G,-4.14
17,C54A U144G,-0.801
18,C54A U144A,-1.74
19,U55A C57G C85A C108A C114G G152A,≤ -4.2
20,C54U G67C C93G U102C U134A U135A A142U,≤ -4.2
21,C54U U55C C72U C87A,≤ -4.2
22,C54U G92C A121U,-0.244
23,U55A C57U C85G G94C C99G C149G,≤ -4.2
24,U55A A91G,-2.86

row,Variant,polymerase ribozyme fitness (log ratio)
1,C54A A66U U144A,≤ -4.2
2,C54U A66G C96A G136A,≤ -4.2
3,C54U C75G A110U A142G,≤ -4.2
4,C54G C87U,-3.59
5,C54U G92C,-1.07
6,C54U G92A,-3
7,C54U G136A,0.306
8,C54U C99U,-0.322
9,U55A A142U,-0.464
10,U55A A91U C114U,≤ -4.2
11,C54A C105U A121G,-0.876
12,C54U C57G G74A C93U,≤ -4.2
13,C54A G92A G126U,-3.3
14,C54U C72G C99A,≤ -4.2
15,C54G C114U G143C,-4.16
16,C54U C76G C95U U101C,≤ -4.2
17,U55A A91U G136A,≤ -4.2
18,C54G U56A C57A G81U C93U,-0.912
19,C54U G84C G100C C108A A113U G141U,≤ -4.2
20,U55A C79U C85U,-3.3
21,C54U C93A A110G A137G G140C,-4.1
22,C54G U90C G94A C96G G128C G141U,≤ -4.2
23,C54G C69G G83A C87G A110U U111C,≤ -4.2
24,C54A C63G C69G C76G U82C C131G,≤ -4.2

row,Variant,polymerase ribozyme fitness (log ratio)
1,C54U G59A G70C,-2.48
2,C54A G83U,-1.19
3,C54U U77G A121C,≤ -4.2
4,C54A C87A A121C,≤ -4.2
5,C54A U56A,-1.31
6,C54A G58C G84U G94U C114G C116U,≤ -4.2
7,C54U C57A C87G G94C U130A,≤ -4.2
8,C54U G86A C96U C105U C129G,≤ -4.2
9,C54U A73U C87G,≤ -4.2
10,C54G U90G,≤ -4.2
11,C54A C76A G84C U134A,≤ -4.2
12,C54A C96G C105U U144C,-2.85
13,C54U U82G C95A A119G,-2.04
14,C54U G83A G140U G143A,≤ -4.2
15,C54A U56G C95A A120G,-1.33
16,C54G G83A A91U,≤ -4.2
17,C54A C85A U139A,≤ -4.2
18,C54G C76A C85A G143A,≤ -4.2
19,C54A C93G,≤ -4.2
20,U55A A60C A66C C96U U102C C118A,≤ -4.2
21,C54U U61A C76U U82A G126A,≤ -4.2
22,C54G C85U G86A U111C,≤ -4.2
23,C54U G67C C69U C87U U101G,≤ -4.2
24,C54U G86U,-1.78

row,Variant,polymerase ribozyme fitness (log ratio)
1,C54U G86C,-3.47
2,C54U G59U,0.271
3,C54U G58C A137G U151G,≤ -4.2
4,U55A C63U A142U,-0.552
5,C54A U56G U77G G86A G88C,≤ -4.2
6,C54U G67C G94C U111A C129G,≤ -4.2
7,C54A C85G U102C C103G A122U G126C,≤ -4.2
8,C54G C93G,≤ -4.2
9,C54G C93A,-4.19
10,U55A A66U C75U C79G G86A C105U A106U A119U A122U G124U G141A,≤ -4.2
11,C54A G70A C95U A120G,-3.62
12,C54U G88A A89U C95A C99U U146G U151A,≤ -4.2
13,C54U G68A G84C C85G G124A,≤ -4.2
14,U55A C76A C87G C93U C95G U101G G128A,≤ -4.2
15,C54U C85A,-2.3
16,U55A C57A C95U,-0.372
17,U55A A73U C75U C93U G100A U139A U144G,≤ -4.2
18,C54A U56G U78G U82G C114A U144C,≤ -4.2
19,C54U G84A C105A,-0.565
20,C54U U78A C85G C118U A120C U148G A150U,≤ -4.2
21,C54U G71C C116U G136A U146C,-3.51
22,C54U C96U C103G C114U,≤ -4.2
23,C54G C76G A89U C93A A113G C116U,≤ -4.2
24,C54A C75G A91G,≤ -4.2

row,Variant,polymerase ribozyme fitness (log ratio)
1,C54G C75U,-1.86
2,C54G G68U,≤ -4.2
3,C54U C99G G141U U151G,≤ -4.2
4,C54A C85A A97U,≤ -4.2
5,C54A A73U C87G C108U,≤ -4.2
6,U55A A113U A121G U139G G141U U144A,≤ -4.2
7,U55A A150C,-3.6
8,C54G U55C C85U U90A G128U,≤ -4.2
9,C54A C87A,-4.19
10,U55A A91U G143A,≤ -4.2
11,C54A G70C G88A C93G U134A U146A,≤ -4.2
12,C54U G86C G112U,≤ -4.2
13,C54U U56A C118U,-0.674
14,C54G C93G U104G A106U A137U A142C,≤ -4.2
15,C54A U61G G68C G83U A115G U127A A138U,≤ -4.2
16,C54G C75U G94A,-1.51
17,C54U C75G G88C C123A A137G,≤ -4.2
18,C54U C85U G88U A89U C99U C105G,≤ -4.2
19,C54G U55A C108G A122U,≤ -4.2
20,C54G A91C U101G C116U A137C G143U U145A,≤ -4.2
21,C54U U56A G71A A107C A150C,≤ -4.2
22,U55A C63U C85U C105U,0.719
23,C54G G88C,≤ -4.2
24,C54U C96A A97G,-1.12

row,Variant,polymerase ribozyme fitness (log ratio)
1,C54U U55G C85A C103U,≤ -4.2
2,C54A C95U,-2.22
3,U55A C79G C85G U139G,≤ -4.2
4,C54A C79G A107G A115C A142U A147U A150G,≤ -4.2
5,U55A A89G U148G,≤ -4.2
6,C54G G59C G83U C87U G94A U102C U148G,≤ -4.2
7,C54U U78G C96G A113U,≤ -4.2
8,C54G A73G C79A U82G C87U A122U G141C,≤ -4.2
9,U55A C76A C96U C99G,≤ -4.2
10,C54A C93G A115U,≤ -4.2
11,U55A C76G G100C U109A A120G,≤ -4.2
12,C54G A97C U101G U135G,≤ -4.2
13,U55A A73C C87U G92A,-2.04
14,C54U G81A G86U C105A A147U,-4.16
15,U55A C76A C85A A91C G92A G140A U145A,≤ -4.2
16,C54U G59C G83A G117U,-0.252
17,C54A A91U,≤ -4.2
18,C54U A121U,0.0158
19,C54G U56A C87U C93A C132A,≤ -4.2
20,C54A A91U C108U C116A C123A U148A,≤ -4.2
21,C54G C93A C103U,≤ -4.2
22,C54G U130G,≤ -4.2
23,C54U C149A U151G,≤ -4.2
24,C54G G94A C108A C125U,≤ -4.2

row,Variant,polymerase ribozyme fitness (log ratio)
1,C54U G58U A64C C85A A89C C114U,≤ -4.2
2,C54G A91C A98G A106U C108A,≤ -4.2
3,C54A C69U,-4.12
4,C54A G94U C123G C125A U134C,-3.75
5,U55A A91C G143U,≤ -4.2
6,C54U G92U A147U,0.0812
7,U55A A64C,≤ -4.2
8,C54A U55C C79A G86C C103G A147C,≤ -4.2
9,C54U C76U C123A U139G U146C A150C,≤ -4.2
10,C54U A89C C131U,0.237
11,C54G G84U C85G U134G,≤ -4.2
12,C54U A97C,-0.294
13,C54U C96G,-0.994
14,C54U C96U,-0.41
15,U55A C76G,≤ -4.2
16,C54U U151C,-3.65
17,C54G C76U U77C C87A G126U,≤ -4.2
18,C54A C85A,≤ -4.2
19,C54A C93A A97U,≤ -4.2
20,C54G C108U,-4.19
21,C54U C75A C96U,≤ -4.2
22,C54G G83C A97U A98U,-2.8
23,C54U C76U G94C G100U A119G G128U,≤ -4.2
